In the assay the test system is MX-1 breast xenograft, intrarenal, nude mice, tumor weight. The assay is described as follows: NCI In Vivo Anticancer Drug Screen. Data for tumor model Human Mammary Carcinoma MX-1 Xenograft (intrarenal inoculation) in NU/NU BALB/C (nude) mice. Particulars: endpoint: mean tumor weight change, schedule: Q04DX003 (ip), vehicle: Klucel (hydroxypropylcellulose) (HPC), higher = larger tumour. On the procedure:
The antitumor activity of compounds was measured in mice bearing transplantable tumors. Survival or tumor size were measured and the results are expressed as the measurement made in the treated group (T) divided by the measurement made in the vehicle treated control group (C). The tumor model used in this assay is Human Mammary Carcinoma MX-1 Xenograft (intrarenal inoculation) in NU/NU BALB/C (nude) mice

Several values for one entry are separate records, joined by “and”; a condition that tells them apart may be missing. Equal entries are not always repeated. Records with an inconclusive call do not appear.

On to `COc1c(O)cc2c(c1OC)-c1ccc(SC)c(=O)cc1C(NC(C)=O)CC2` (centres undefined), for which the T/C is, setting by setting: (dose: 1.25 mg/kg/injection) 61 % of control; (dose: 1.56 mg/kg/injection) 41 % of control; (dose: 2.5 mg/kg/injection) 31 % of control and 46 % of control; (dose: 3.12 mg/kg/injection) 33 % of control; (dose: 6.25 mg/kg/injection) 7 % of control and 20 % of control; (dose: 10.0 mg/kg/injection) 16 % of control and 24 % of control (2×). For the setting “dose: 12.5 mg/kg/injection”, the T/C was 7 % of control.

As to `COc1cc2c(c(OC)c1OC)-c1ccc(SC)c(=O)cc1[C@@H](NC(C)=O)CC2`, the T/C reads like this: (dose: 0.5 mg/kg/injection) 52 % of control; (dose: 0.72 mg/kg/injection) 57 % of control; (dose: 1.0 mg/kg/injection) 28 % of control; (dose: 1.2 mg/kg/injection) 47 % of control and 71 % of control; (dose: 2.0 mg/kg/injection) 19 % of control and 21 % of control and 27 % of control.

For the compound `CCOC(=O)NC1CCc2cc(OC)c(OC)c(OC)c2-c2ccc(OC)c(=O)cc21` (centres undefined), the T/C (dose: 3.75 mg/kg/injection) is 56 % of control.

`COc1cc2c(c(OC)c1OC)-c1ccc(OC)c(=O)cc1[C@@H](N)CC2`: for the setting “dose: 30.0 mg/kg/injection”, the T/C is 27 % of control.

Source of the values: PubChem BioAssay AID298 (DTP/NCI, 2004).
